# Laboratory results taken from the supplement of paper PMC8728848.
# This is one part of the list.
# B1: Regenerating Gene I (Homo sapiens), P05451 (protein)
# chain: MAQTSSYFMLISCLMFLSQSQGQEAQTELPQARISCPEGTNAYRSYCYYFNEDRETWVDADLYCQNMNSGNLVSVLTQAEGAFVASLIKESGTDDFNVWIGLHDPKKNRRWHWSSGSLVSYKSWGIGAPSSVNPGYCVSLTSSTGFQKWKDVPCEDKFSFVCKFKN
# Experiments:
# Assay in all cases: glycan array binding signal (z-score within array); higher = stronger binding
# Conditions in all cases: glycan notation: IUPAC condensed, linker removed
# [1] = target: Gal6S(b1-4)Glc
# Method in brief: (§1)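 Columns mapping to the same glycan were averaged after glycan names were converted to IUPAC-condensed notation. The data come from 3228 arrays in the Consortium for Functional Glycomics database, limited to those with an available protein sequence. Binding is reported as a within-array Z-score averaged across arrays of one protein sequence and across linkers.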
# [2] = target: Gal6S(b1-4)Glc6S
# Method in brief: as §1
# [3] = target: Gal6S(b1-4)GlcNAc
# Method in brief: as §1
# [4] = target: Gal6S(b1-4)GlcNAc6S
# Method in brief: as §1
# [5] = target: GalNAc(a1-3)Gal
# Method in brief: as §1
# [6] = target: GalNAc(a1-3)GalNAc
# Method in brief: as §1
# [7] = target: GalNAc(b1-3)Gal
# Method in brief: as §1
# [8] = target: GalNAc(b1-3)Gal(a1-4)Gal(b1-4)GlcNAc
# Method in brief: as §1
# [9] = target: GalNAc(b1-3)GalNAc
# Method in brief: as §1
# [10] = target: GalNAc(b1-4)GlcNAc
# Method in brief: as §1
# [11] = target: Glc(a1-4)Glc
# Method in brief: as §1
# [12] = target: Glc(a1-6)Glc(a1-6)Glc
# Method in brief: as §1
# [13] = target: Glc(b1-4)Glc
# Method in brief: as §1
# [14] = target: Glc(b1-6)Glc
# Method in brief: as §1
# [15] = target: GlcA(b1-3)Gal
# Method in brief: as §1
# [16] = target: GlcA(b1-3)GlcNAc
# Method in brief: as §1
# [17] = target: GlcA(b1-6)Gal
# Method in brief: as §1
# [18] = target: GlcNAc(a1-3)Gal(b1-4)GlcNAc
# Method in brief: as §1
# [19] = target: GlcNAc(a1-6)Gal(b1-4)GlcNAc
# Method in brief: as §1
# [20] = target: GlcNAc(b1-2)Gal(b1-3)GalNAc
# Method in brief: as §1
# [21] = target: GlcNAc(b1-2)Man(a1-3)[GlcNAc(b1-2)Man(a1-6)]Man(b1-4)GlcNAc(b1-4)GlcNAc
# Method in brief: as §1
# [22] = target: GlcNAc(b1-3)Gal
# Method in brief: as §1
# [23] = target: GlcNAc(b1-3)Gal(b1-3)GalNAc
# Method in brief: as §1
# [24] = target: GlcNAc(b1-3)Gal(b1-4)Glc
# Method in brief: as §1
# [25] = target: GlcNAc(b1-3)Gal(b1-4)GlcNAc
# Method in brief: as §1
# [26] = target: GlcNAc(b1-3)Gal(b1-4)GlcNAc(b1-3)Gal(b1-4)GlcNAc
# Method in brief: as §1
# [27] = target: GlcNAc(b1-3)GalNAc
# Method in brief: as §1
# [28] = target: GlcNAc(b1-3)Man
# Method in brief: as §1
# [29] = target: GlcNAc(b1-3)[GlcNAc(b1-4)][GlcNAc(b1-6)]GlcNAc
# Method in brief: as §1
# [30] = target: GlcNAc(b1-3)[GlcNAc(b1-6)]Gal(b1-4)GlcNAc
# Method in brief: as §1
# [31] = target: GlcNAc(b1-3)[GlcNAc(b1-6)]GalNAc
# Method in brief: as §1
# [32] = target: GlcNAc(b1-4)Gal(b1-4)GlcNAc
# Method in brief: as §1
# [33] = target: GlcNAc(b1-4)GlcNAc
# Method in brief: as §1
# [34] = target: GlcNAc(b1-4)GlcNAc(b1-4)GlcNAc
# Method in brief: as §1
# [35] = target: GlcNAc(b1-4)GlcNAc(b1-4)GlcNAc(b1-4)GlcNAc(b1-4)GlcNAc
# Method in brief: as §1
# [36] = target: GlcNAc(b1-4)GlcNAc(b1-4)GlcNAc(b1-4)GlcNAc(b1-4)GlcNAc(b1-4)GlcNAc
# Method in brief: as §1
# [37] = target: GlcNAc(b1-4)[GlcNAc(b1-6)]GalNAc
# Method in brief: as §1
# [38] = target: GlcNAc(b1-6)Gal(b1-4)GlcNAc
# Method in brief: as §1
binder,measurement,setting,value
B1,glycan array binding signal (z-score),[1],-0.067
same,glycan array binding signal (z-score),[2],0.787
same,glycan array binding signal (z-score),[3],-0.094
same,glycan array binding signal (z-score),[4],0.952
same,glycan array binding signal (z-score),[5],1.27
same,glycan array binding signal (z-score),[6],-0.588
same,glycan array binding signal (z-score),[7],0.483
same,glycan array binding signal (z-score),[8],0.085
same,glycan array binding signal (z-score),[9],-0.187
same,glycan array binding signal (z-score),[10],-0.128
same,glycan array binding signal (z-score),[11],-0.269
same,glycan array binding signal (z-score),[12],-0.118
same,glycan array binding signal (z-score),[13],1.09
same,glycan array binding signal (z-score),[14],-0.473
same,glycan array binding signal (z-score),[15],-0.114
same,glycan array binding signal (z-score),[16],0.836
same,glycan array binding signal (z-score),[17],0.056
same,glycan array binding signal (z-score),[18],0.944
same,glycan array binding signal (z-score),[19],-0.008
same,glycan array binding signal (z-score),[20],-0.206
same,glycan array binding signal (z-score),[21],-0.251
same,glycan array binding signal (z-score),[22],-0.215
same,glycan array binding signal (z-score),[23],1.62
same,glycan array binding signal (z-score),[24],1.55
same,glycan array binding signal (z-score),[25],-0.357
same,glycan array binding signal (z-score),[26],-0.517
same,glycan array binding signal (z-score),[27],-0.452
same,glycan array binding signal (z-score),[28],-0.525
same,glycan array binding signal (z-score),[29],0.255
same,glycan array binding signal (z-score),[30],-0.377
same,glycan array binding signal (z-score),[31],-0.004
same,glycan array binding signal (z-score),[32],2.18
same,glycan array binding signal (z-score),[33],-0.503
same,glycan array binding signal (z-score),[34],-0.188
same,glycan array binding signal (z-score),[35],-0.257
same,glycan array binding signal (z-score),[36],-0.396
same,glycan array binding signal (z-score),[37],1.91
same,glycan array binding signal (z-score),[38],-0.198
